Among all 310,000 compounds or so, about 14,000 (4.5%) showed an effect of 50% or more. The effect is printed as a negative number. Some of the results follow.
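Note: peak tail current of the secondary pulse compared with the same well before compound.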

The target of the experiment is human ether-à-go-go-related gene (hERG) potassium channel (human, UniProt Q12809). As to the kind of experiment: primary screen, population patch clamp on CHO cells stably expressing hERG.
Chain of human ether-à-go-go-related gene (hERG) potassium channel (Q12809 whole entry, looked up): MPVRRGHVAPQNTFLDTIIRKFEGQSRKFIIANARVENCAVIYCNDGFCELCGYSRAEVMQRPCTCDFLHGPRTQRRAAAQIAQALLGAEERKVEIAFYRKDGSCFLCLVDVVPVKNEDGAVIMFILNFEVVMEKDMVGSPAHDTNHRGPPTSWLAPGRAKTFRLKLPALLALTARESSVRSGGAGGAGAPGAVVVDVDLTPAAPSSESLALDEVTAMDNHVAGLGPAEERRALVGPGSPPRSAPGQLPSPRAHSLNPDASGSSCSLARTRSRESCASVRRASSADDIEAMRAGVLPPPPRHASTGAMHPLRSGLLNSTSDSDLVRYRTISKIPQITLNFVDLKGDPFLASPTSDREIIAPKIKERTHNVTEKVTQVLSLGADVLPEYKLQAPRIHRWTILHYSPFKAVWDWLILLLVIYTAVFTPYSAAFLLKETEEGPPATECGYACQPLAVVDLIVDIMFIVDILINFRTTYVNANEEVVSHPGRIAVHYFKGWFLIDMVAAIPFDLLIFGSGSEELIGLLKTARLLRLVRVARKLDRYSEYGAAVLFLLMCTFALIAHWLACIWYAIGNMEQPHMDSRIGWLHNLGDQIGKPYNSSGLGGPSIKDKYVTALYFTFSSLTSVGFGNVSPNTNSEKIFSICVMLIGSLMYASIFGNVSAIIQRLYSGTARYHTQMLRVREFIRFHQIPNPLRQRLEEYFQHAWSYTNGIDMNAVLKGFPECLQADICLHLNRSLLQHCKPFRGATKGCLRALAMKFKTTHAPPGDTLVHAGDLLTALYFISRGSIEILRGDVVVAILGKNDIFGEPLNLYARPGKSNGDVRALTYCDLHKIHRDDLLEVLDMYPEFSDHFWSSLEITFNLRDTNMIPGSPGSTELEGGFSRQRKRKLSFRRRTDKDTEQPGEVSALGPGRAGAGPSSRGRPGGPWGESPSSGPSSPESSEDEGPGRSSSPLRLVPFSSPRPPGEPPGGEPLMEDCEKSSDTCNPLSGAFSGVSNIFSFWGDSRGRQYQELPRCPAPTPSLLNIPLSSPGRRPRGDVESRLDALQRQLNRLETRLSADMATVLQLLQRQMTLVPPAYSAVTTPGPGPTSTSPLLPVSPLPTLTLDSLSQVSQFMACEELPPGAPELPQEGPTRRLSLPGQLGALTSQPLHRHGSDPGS
Regarding `COc1cc2[nH]c(C(=O)NCC3CCCO3)cc2c(OC)c1OC` (stereo not shown), the “hERG current change (%, negative = inhibition) at 10uM” value was determined as 20.5%.

Regarding `Cc1nc2c(cc1NC(=O)C(C)(C)C)nc(C)n2Cc1ccccc1`, the “hERG current change (%, negative = inhibition) at 10uM” value came out at 2.81%.

In the case of `C=CCNC(=O)C1CC(c2cccc(OC)c2)=NO1` (stereo not shown), the “hERG current change (%, negative = inhibition) at 10uM” value is on record as 8.01%.

Regarding `O=C1NC(=Nc2ccccc2Cl)SC1(CO)CO`, the “hERG current change (%, negative = inhibition) at 10uM” value is recorded as 11%.

`O=[N+]([O-])c1cccc(NP(=O)(Oc2ccccc2)Oc2ccccc2)c1`: the “hERG current change (%, negative = inhibition) at 10uM” value is reported as -0.535%.

For `Cl.OCCN(Cc1ccccc1)CC(O)COc1ccc2c(c1)OCO2` (stereo not shown), the “hERG current change (%, negative = inhibition) at 10uM” value is -8.77%.

As to `COc1ccc(C(=O)NCc2cn3ccccc3n2)cc1`, the “hERG current change (%, negative = inhibition) at 10uM” value is -5.56%.

Consider `Cc1ccc(S(=O)(=O)Nc2ccc(-c3cn4ccc(C)cc4n3)cc2)cc1`, for which the “hERG current change (%, negative = inhibition) at 10uM” value was 0.0747%.

Turning to `COCc1ccc(C(=O)N2CCCC(C(=O)c3cc(F)ccc3F)C2)s1` (stereo not shown), the “hERG current change (%, negative = inhibition) at 10uM” value is listed as -2.39%.

As to `COc1ccc(CNC(=O)c2cc(=O)c3ccccc3o2)cc1`, the “hERG current change (%, negative = inhibition) at 10uM” value is 6.31%.

As to `CC(C)OCCCNC(=O)c1ccc(NS(C)(=O)=O)cc1`, the “hERG current change (%, negative = inhibition) at 10uM” value is recorded as -7.42%.

As to `O=C(NCc1nnc2c(C(F)(F)F)cc(Cl)cn12)c1ccc2c(c1)OCO2`, the “hERG current change (%, negative = inhibition) at 10uM” value was 5.23%.

As to `COc1cc(C(=O)N2CCCCC2)ccc1OCC(=O)Nc1ccc(F)cc1`, the “hERG current change (%, negative = inhibition) at 10uM” value was -18.3%.

For the molecule `COC(=O)/C(C#N)=C/c1c(Oc2cccc(C)c2)nc2ccccn2c1=O`, the “hERG current change (%, negative = inhibition) at 10uM” value is reported as -26.8%.

Regarding `CCC(NC(=O)c1cncc(Br)c1)c1ccccc1` (stereo not shown), the “hERG current change (%, negative = inhibition) at 10uM” value is listed as 8.8%.

With `COc1ccc(/C=C/C(=O)NCCC(=O)N2CCCN(C)CC2)cc1`, the “hERG current change (%, negative = inhibition) at 10uM” value was -1.57%.

As for `COCCN(Cc1ccccc1)P(=O)(O)c1ccccc1OCC(=O)O`, the “hERG current change (%, negative = inhibition) at 10uM” value is reported as 5.81%.

Regarding `CC1CCN(CCn2c(=S)[nH]c3cc4c(cc3c2=O)OCO4)CC1`, the “hERG current change (%, negative = inhibition) at 10uM” value is recorded as -27.4%.

In the case of `CCO/C=C/C(O)(CNC(=O)c1ccc(C(C)(C)C)cc1)C(F)(F)F` (stereo not shown), the “hERG current change (%, negative = inhibition) at 10uM” value is -7.57%.

For the molecule `Cc1cc(C)cc(OCCN2CCOCC2)c1`, the “hERG current change (%, negative = inhibition) at 10uM” value is 15.5%.

As for `O=C(NCc1ccccc1Cl)C1CCCO1` (stereo not shown), the “hERG current change (%, negative = inhibition) at 10uM” value came out at 10.6%.

`Cc1ccc(NC(=O)CNC(=O)N2CC(=O)Nc3ccccc32)cc1F`: the “hERG current change (%, negative = inhibition) at 10uM” value is given as 1.74%.

As to `CCC(C)NC(=O)c1ccc(CSc2nc3ccncc3n2Cc2ccc(F)cc2)cc1` (stereo not shown), the “hERG current change (%, negative = inhibition) at 10uM” value was -59%.

Regarding `COc1ccccc1/C=[N+](\[O-])C1SC(=S)N(C)C1(C)C` (stereo not shown), the “hERG current change (%, negative = inhibition) at 10uM” value was 15.1%.

On to `COc1ccc(NC(=O)CN(C)S(=O)(=O)c2ccc3c(c2)CCC(=O)N3)c(OC)c1`, for which the “hERG current change (%, negative = inhibition) at 10uM” value is on record as -37.1%.

Turning to `Cc1ccc(C)c(N(C)S(=O)(=O)c2cccc3nsnc23)c1`, the “hERG current change (%, negative = inhibition) at 10uM” value is given as -18.4%.

For `Cc1cc(NC(=O)COC(=O)C2CCN(C(=O)c3ccc(Cl)cc3)CC2)no1`, the “hERG current change (%, negative = inhibition) at 10uM” value was -19.2%.

In the case of `O=C1N/C(=C/c2ccc(N3CCOCC3)cc2)C(=O)N1Cc1ccc(F)cc1`, the “hERG current change (%, negative = inhibition) at 10uM” value is reported as 22.1%.

For `CCOC(=O)N1CCN(C(=O)CS(=O)(=O)Cc2nc(-c3ccccc3C)oc2C)CC1`, the “hERG current change (%, negative = inhibition) at 10uM” value was -44.4%.

Regarding `COc1cccc(C(=O)NNC(=O)Cc2ccc(Cl)cc2)c1`, the “hERG current change (%, negative = inhibition) at 10uM” value is given as 10.4%.

For `O=C(O)/C(=C\c1cccc(F)c1)c1ccc(S(=O)(=O)N2CCCCC2)s1`, the “hERG current change (%, negative = inhibition) at 10uM” value is recorded as 8.72%.

In the case of `COc1ccc(-c2cccc(C(=O)N3CCOCC3)c2)cc1`, the “hERG current change (%, negative = inhibition) at 10uM” value is on record as 7.94%.

`Cn1c(-c2ccc(F)cc2)cnc1SCC(=O)NCc1ccco1`: the “hERG current change (%, negative = inhibition) at 10uM” value is listed as -9.84%.

For `CC1CCc2nc3ccccc3c(C(=O)OCC(=O)N3CCc4ccccc43)c2C1` (stereo not shown), the “hERG current change (%, negative = inhibition) at 10uM” value worked out at 17.5%.

As for `Fc1ccc(C2=Nn3c(Cc4ccccc4F)nnc3SC2)cc1`, the “hERG current change (%, negative = inhibition) at 10uM” value stood at 15.4%.

With `Cc1ccc2c(c1)C1CN(C)CCC1N2C(=O)COc1ccc(N(C)S(=O)(=O)c2cccs2)cc1` (stereo not shown), the “hERG current change (%, negative = inhibition) at 10uM” value is -52.9%.

Regarding `COc1ccc(OC)c(NC(=O)CN(C)CC(=O)Nc2ccccc2Cl)c1`, the “hERG current change (%, negative = inhibition) at 10uM” value is given as -12.7%.

Consider `OCCN(Cc1ccccc1)c1ncnc2sccc12`, for which the “hERG current change (%, negative = inhibition) at 10uM” value turned out to be 4.93%.

For `CC(=O)c1c(O)ccc2c(-c3ccccc3)cc(=O)oc12`, the “hERG current change (%, negative = inhibition) at 10uM” value is reported as -15.6%.

On to `O=c1[nH]c2ccccc2nc1/C=C(\O)C1CC1`, for which the “hERG current change (%, negative = inhibition) at 10uM” value stood at 9.7%.

For `C/C(=N/N=C(/C)c1cccs1)c1cccs1`, the “hERG current change (%, negative = inhibition) at 10uM” value was determined as 16.9%.

Consider `CCn1cc(CN2CCN(CCC(C)C)C(CCO)C2)c2ccccc21` (stereo not shown), for which the “hERG current change (%, negative = inhibition) at 10uM” value is given as -31.9%.

Turning to `CCN(CC)CCNC(=O)C1(O)c2cc(Br)ccc2NC(=O)N1c1ccc(Cl)cc1` (stereo not shown), the “hERG current change (%, negative = inhibition) at 10uM” value worked out at 9.81%.

Consider `COc1cc(Br)c(CNCCc2ccc3c(c2)OCO3)cc1OC`, for which the “hERG current change (%, negative = inhibition) at 10uM” value is recorded as -32%.

`Br.CC1(C)N=C(N)NC(Nc2ccc(Br)cc2)=N1`: the “hERG current change (%, negative = inhibition) at 10uM” value is 9.95%.

`NS(=O)(=O)c1ccc(NC(=O)CCc2ccccc2)cc1`: the “hERG current change (%, negative = inhibition) at 10uM” value was -5.76%.

On to `COc1ccc(S(=O)(=O)Nc2ccc(O)c(Sc3ncn[nH]3)c2)cc1`, for which the “hERG current change (%, negative = inhibition) at 10uM” value turned out to be 7.39%.

In the case of `Cn1c(=O)n(C)c2cc(NS(=O)(=O)c3cccs3)ccc21`, the “hERG current change (%, negative = inhibition) at 10uM” value is listed as 6.18%.

As to `Cc1ccc(S(=O)(=O)C(C#N)c2nc3ccccc3nc2N2CCCC2)cc1` (stereo not shown), the “hERG current change (%, negative = inhibition) at 10uM” value is listed as -18.3%.

With `O=[N+]([O-])c1ccccc1-c1ccc(C(=S)N2CCCC2)o1`, the “hERG current change (%, negative = inhibition) at 10uM” value was determined as 9.34%.

Regarding `CCNC(=O)/C(C#N)=C/c1c(N2CC(C)OC(C)C2)nc2ccccn2c1=O` (stereo not shown), the “hERG current change (%, negative = inhibition) at 10uM” value came out at 3.68%.

With `CCCN(Cc1ccccc1)C(=S)Nc1ccc(OC(F)F)cc1`, the “hERG current change (%, negative = inhibition) at 10uM” value is listed as -41%.

Regarding `O=C1CC(=O)N(c2ccccc2)c2ccccc21`, the “hERG current change (%, negative = inhibition) at 10uM” value came to 11.3%.

For `CN(C)CCCN(C(=O)c1cc2ccccc2oc1=O)c1nc2c(F)cccc2s1.Cl`, the “hERG current change (%, negative = inhibition) at 10uM” value was -41.1%.

As to `N#Cc1cnc(SCC(=O)N2CCCCC2)nc1N`, the “hERG current change (%, negative = inhibition) at 10uM” value stood at 16.4%.

On to `COc1ccc(C(NC(=O)C2C3C=CC(C3)C2C(=O)O)c2ccccc2)cc1` (stereo not shown), for which the “hERG current change (%, negative = inhibition) at 10uM” value is -4.58%.

Regarding `COc1ccc(C(=O)Nc2ccccc2C(=O)N/N=C/c2ccco2)cc1`, the “hERG current change (%, negative = inhibition) at 10uM” value was -41.3%.

For `CN(c1ccccc1)c1ccc(/C=C(\CCC(=O)O)c2nc3ccccc3s2)cc1[N+](=O)[O-]`, the “hERG current change (%, negative = inhibition) at 10uM” value is listed as 44.6%.
